{"source": "the supplement of paper PMC8728848", "binders": {"B1": {"name": "Epa9 (Candida glabrata), CAGL0A01386g (protein)", "chain": "MGSSHHHHHHSSGLVPRGSHMDITPFAHYPRPEGCSSPPNAVSVGLHMDLYNYPYLYVKNPRTGFTNDTDSDADGETDGDSAGGIEGRAGQCWNPEYQDPNFPRYGYKKYGSFGSSDHVNGKISWDHNEFKEGCKPIMARLPTAYNYPAKITFSNFTMVLSGYFKPKSTGLYKFEIHADDFILFNFGSKNAFECCNREESIDNFGPYVAYAMWPNEADQELEVYLFEDSYYPIRLFYNNRDYHSKFMVGFYPPNTEEITYDFDGYLYMLDDTGNECKDSIRYKTVCDD"}}, "test_in_all_cases": "glycan array binding signal (z-score within array); higher = stronger binding", "conditions_in_all_cases": "glycan notation: IUPAC condensed, linker removed", "key": {"[1]": {"target": "Gal(b1-4)GlcNAc(b1-3)Gal(b1-4)GlcNAc(b1-3)Gal(b1-4)GlcNAc(b1-3)Gal(b1-4)GlcNAc(b1-2)Man(a1-3)[Gal(b1-4)GlcNAc(b1-3)Gal(b1-4)GlcNAc(b1-3)Gal(b1-4)GlcNAc(b1-3)Gal(b1-4)GlcNAc(b1-2)Man(a1-6)]Man(b1-4)GlcNAc(b1-4)GlcNAc", "summary_of_the_method": "(§1)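 Glycan array binding is given as a within-array Z-score, which can be read as non-binding when negative. The arrays, 3228 of them, came from the Consortium for Functional Glycomics database and were retained only where the protein sequence was available. Z-scores were averaged across arrays of the same protein sequence at different concentrations or buffers and across linkers.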"}, "[2]": {"target": "Gal(b1-4)GlcNAc(b1-3)Gal(b1-4)GlcNAc(b1-3)Gal(b1-4)GlcNAc(b1-3)Gal(b1-4)GlcNAc(b1-2)Man(a1-3)[Gal(b1-4)GlcNAc(b1-3)Gal(b1-4)GlcNAc(b1-3)Gal(b1-4)GlcNAc(b1-3)Gal(b1-4)GlcNAc(b1-2)Man(a1-6)]Man(b1-4)GlcNAc(b1-4)[Fuc(a1-6)]GlcNAc", "summary_of_the_method": "as §1"}, "[3]": {"target": "Gal(b1-4)GlcNAc(b1-3)Gal(b1-4)GlcNAc(b1-3)Gal(b1-4)GlcNAc(b1-3)Gal(b1-4)GlcNAc(b1-2)[Gal(b1-4)GlcNAc(b1-3)Gal(b1-4)GlcNAc(b1-3)Gal(b1-4)GlcNAc(b1-3)Gal(b1-4)GlcNAc(b1-6)]Man(a1-6)[Gal(b1-4)GlcNAc(b1-3)Gal(b1-4)GlcNAc(b1-3)Gal(b1-4)GlcNAc(b1-3)Gal(b1-4)GlcNAc(b1-2)Man(a1-3)]Man(b1-4)GlcNAc(b1-4)[Fuc(a1-6)]GlcNAc", "summary_of_the_method": "as §1"}, "[4]": {"target": "Gal(b1-4)GlcNAc(b1-3)Gal(b1-4)GlcNAc(b1-3)Gal(b1-4)GlcNAc(b1-3)Gal(b1-4)GlcNAc(b1-3)Gal(b1-4)GlcNAc(b1-2)Man(a1-3)[Gal(b1-4)GlcNAc(b1-3)Gal(b1-4)GlcNAc(b1-3)Gal(b1-4)GlcNAc(b1-3)Gal(b1-4)GlcNAc(b1-3)Gal(b1-4)GlcNAc(b1-2)Man(a1-6)]Man(b1-4)GlcNAc(b1-4)GlcNAc", "summary_of_the_method": "as §1"}, "[5]": {"target": "Gal(b1-4)GlcNAc(b1-3)Gal(b1-4)GlcNAc(b1-3)Gal(b1-4)GlcNAc(b1-3)Gal(b1-4)GlcNAc(b1-3)Gal(b1-4)GlcNAc(b1-2)Man(a1-3)[Gal(b1-4)GlcNAc(b1-3)Gal(b1-4)GlcNAc(b1-3)Gal(b1-4)GlcNAc(b1-3)Gal(b1-4)GlcNAc(b1-3)Gal(b1-4)GlcNAc(b1-2)Man(a1-6)]Man(b1-4)GlcNAc(b1-4)[Fuc(a1-6)]GlcNAc", "summary_of_the_method": "as §1"}, "[6]": {"target": "Gal(b1-4)GlcNAc(b1-3)Gal(b1-4)GlcNAc(b1-3)Gal(b1-4)GlcNAc(b1-3)Gal(b1-4)GlcNAc(b1-3)Gal(b1-4)GlcNAc(b1-2)[Gal(b1-4)GlcNAc(b1-3)Gal(b1-4)GlcNAc(b1-3)Gal(b1-4)GlcNAc(b1-3)Gal(b1-4)GlcNAc(b1-3)Gal(b1-4)GlcNAc(b1-6)]Man(a1-6)[Gal(b1-4)GlcNAc(b1-3)Gal(b1-4)GlcNAc(b1-3)Gal(b1-4)GlcNAc(b1-3)Gal(b1-4)GlcNAc(b1-3)Gal(b1-4)GlcNAc(b1-2)Man(a1-3)]Man(b1-4)GlcNAc(b1-4)[Fuc(a1-6)]GlcNAc", "summary_of_the_method": "as §1"}, "[7]": {"target": "Gal(b1-4)GlcNAc(b1-3)Gal(b1-4)GlcNAc(b1-3)Gal(b1-4)GlcNAc(b1-3)Gal(b1-4)GlcNAc(b1-3)Gal(b1-4)GlcNAc(b1-3)Gal(b1-4)GlcNAc(b1-2)Man(a1-3)[Gal(b1-4)GlcNAc(b1-3)Gal(b1-4)GlcNAc(b1-3)Gal(b1-4)GlcNAc(b1-3)Gal(b1-4)GlcNAc(b1-3)Gal(b1-4)GlcNAc(b1-3)Gal(b1-4)GlcNAc(b1-2)Man(a1-6)]Man(b1-4)GlcNAc(b1-4)GlcNAc", "summary_of_the_method": "as §1"}, "[8]": {"target": "Gal(b1-4)GlcNAc(b1-3)Gal(b1-4)GlcNAc(b1-3)GalNAc", "summary_of_the_method": "as §1"}, "[9]": {"target": "Gal(b1-4)GlcNAc(b1-3)Gal(b1-4)GlcNAc(b1-3)[Gal(b1-4)GlcNAc(b1-3)Gal(b1-4)GlcNAc(b1-6)]GalNAc", "summary_of_the_method": "as §1"}, "[10]": {"target": "Gal(b1-4)GlcNAc(b1-3)Gal(b1-4)GlcNAc(b1-6)[Gal(b1-3)]GalNAc", "summary_of_the_method": "as §1"}, "[11]": {"target": "Gal(b1-4)GlcNAc(b1-3)Gal(b1-4)[Fuc(a1-3)]GlcNAc(b1-3)Gal(b1-4)[Fuc(a1-3)]GlcNAc", "summary_of_the_method": "as §1"}, "[12]": {"target": "Gal(b1-4)GlcNAc(b1-3)GalNAc", "summary_of_the_method": "as §1"}, "[13]": {"target": "Gal(b1-4)GlcNAc(b1-3)[Fuc(a1-3)GlcNAc(b1-6)]Gal(b1-4)Glc", "summary_of_the_method": "as §1"}, "[14]": {"target": "Gal(b1-4)GlcNAc(b1-3)[Gal(b1-4)GlcNAc(b1-6)]Gal(b1-4)GlcNAc", "summary_of_the_method": "as §1"}, "[15]": {"target": "Gal(b1-4)GlcNAc(b1-3)[GlcNAc(b1-6)]Gal(b1-4)GlcNAc", "summary_of_the_method": "as §1"}, "[16]": {"target": "Gal(b1-4)GlcNAc(b1-6)Gal(b1-4)GlcNAc", "summary_of_the_method": "as §1"}, "[17]": {"target": "Gal(b1-4)GlcNAc(b1-6)GalNAc", "summary_of_the_method": "as §1"}, "[18]": {"target": "Gal(b1-4)GlcNAc(b1-6)[Gal(b1-3)]GalNAc", "summary_of_the_method": "as §1"}, "[19]": {"target": "Gal(b1-4)GlcNAc(b1-6)[Gal(b1-4)GlcNAc(b1-3)]GalNAc", "summary_of_the_method": "as §1"}, "Gal(b1-4)GlcNAc6P": {"target": "Gal(b1-4)GlcNAc6P", "summary_of_the_method": "as §1"}, "Gal(b1-6)Gal": {"target": "Gal(b1-6)Gal", "summary_of_the_method": "as §1"}, "Gal3S(b1-3)GalNAc": {"target": "Gal3S(b1-3)GalNAc", "summary_of_the_method": "as §1"}, "Gal3S(b1-3)GlcNAc": {"target": "Gal3S(b1-3)GlcNAc", "summary_of_the_method": "as §1"}, "[20]": {"target": "Gal3S(b1-3)[Fuc(a1-4)]GlcNAc", "summary_of_the_method": "as §1"}, "Gal3S(b1-4)Glc": {"target": "Gal3S(b1-4)Glc", "summary_of_the_method": "as §1"}, "Gal3S(b1-4)Glc6S": {"target": "Gal3S(b1-4)Glc6S", "summary_of_the_method": "as §1"}, "Gal3S(b1-4)GlcNAc": {"target": "Gal3S(b1-4)GlcNAc", "summary_of_the_method": "as §1"}, "[21]": {"target": "Gal3S(b1-4)[Fuc(a1-3)]Glc6S", "summary_of_the_method": "as §1"}, "[22]": {"target": "Gal3S(b1-4)[Fuc(a1-3)]GlcNAc", "summary_of_the_method": "as §1"}, "[23]": {"target": "Gal3S(b1-4)[Fuc(a1-3)]GlcNAc6S", "summary_of_the_method": "as §1"}, "Gal3S4S(b1-4)GlcNAc": {"target": "Gal3S4S(b1-4)GlcNAc", "summary_of_the_method": "as §1"}, "Gal3S6S(b1-4)GlcNAc": {"target": "Gal3S6S(b1-4)GlcNAc", "summary_of_the_method": "as §1"}, "Gal3S6S(b1-4)GlcNAc6S": {"target": "Gal3S6S(b1-4)GlcNAc6S", "summary_of_the_method": "as §1"}, "Gal4S(b1-4)GlcNAc": {"target": "Gal4S(b1-4)GlcNAc", "summary_of_the_method": "as §1"}, "Gal4S6S(b1-4)GlcNAc": {"target": "Gal4S6S(b1-4)GlcNAc", "summary_of_the_method": "as §1"}, "Gal6P(b1-4)GlcNAc": {"target": "Gal6P(b1-4)GlcNAc", "summary_of_the_method": "as §1"}, "Gal6S(b1-3)GlcNAc": {"target": "Gal6S(b1-3)GlcNAc", "summary_of_the_method": "as §1"}, "Gal6S(b1-3)GlcNAc6S": {"target": "Gal6S(b1-3)GlcNAc6S", "summary_of_the_method": "as §1"}}, "note": "This is one part of the list.", "data": [{"binder": "B1", "values": [{"measurement": "glycan array binding signal (z-score)", "setting": "[1]", "value": 4.82}, {"measurement": "glycan array binding signal (z-score)", "setting": "[2]", "value": 4.74}, {"measurement": "glycan array binding signal (z-score)", "setting": "[3]", "value": 5.31}, {"measurement": "glycan array binding signal (z-score)", "setting": "[4]", "value": 5.73}, {"measurement": "glycan array binding signal (z-score)", "setting": "[5]", "value": 5.38}, {"measurement": "glycan array binding signal (z-score)", "setting": "[6]", "value": 6.29}, {"measurement": "glycan array binding signal (z-score)", "setting": "[7]", "value": 4.6}, {"measurement": "glycan array binding signal (z-score)", "setting": "[8]", "value": 0.655}, {"measurement": "glycan array binding signal (z-score)", "setting": "[9]", "value": 1.18}, {"measurement": "glycan array binding signal (z-score)", "setting": "[10]", "value": 1.01}, {"measurement": "glycan array binding signal (z-score)", "setting": "[11]", "value": 1.5}, {"measurement": "glycan array binding signal (z-score)", "setting": "[12]", "value": 0.451}, {"measurement": "glycan array binding signal (z-score)", "setting": "[13]", "value": 0.601}, {"measurement": "glycan array binding signal (z-score)", "setting": "[14]", "value": 2.02}, {"measurement": "glycan array binding signal (z-score)", "setting": "[15]", "value": 1.41}, {"measurement": "glycan array binding signal (z-score)", "setting": "[16]", "value": 1.82}, {"measurement": "glycan array binding signal (z-score)", "setting": "[17]", "value": 0.436}, {"measurement": "glycan array binding signal (z-score)", "setting": "[18]", "value": 2.27}, {"measurement": "glycan array binding signal (z-score)", "setting": "[19]", "value": 1.45}, {"measurement": "glycan array binding signal (z-score)", "setting": "Gal(b1-4)GlcNAc6P", "value": -0.435}, {"measurement": "glycan array binding signal (z-score)", "setting": "Gal(b1-6)Gal", "value": -0.089}, {"measurement": "glycan array binding signal (z-score)", "setting": "Gal3S(b1-3)GalNAc", "value": -0.464}, {"measurement": "glycan array binding signal (z-score)", "setting": "Gal3S(b1-3)GlcNAc", "value": -0.521}, {"measurement": "glycan array binding signal (z-score)", "setting": "[20]", "value": -0.442}, {"measurement": "glycan array binding signal (z-score)", "setting": "Gal3S(b1-4)Glc", "value": -0.458}, {"measurement": "glycan array binding signal (z-score)", "setting": "Gal3S(b1-4)Glc6S", "value": -0.471}, {"measurement": "glycan array binding signal (z-score)", "setting": "Gal3S(b1-4)GlcNAc", "value": -0.503}, {"measurement": "glycan array binding signal (z-score)", "setting": "[21]", "value": -0.318}, {"measurement": "glycan array binding signal (z-score)", "setting": "[22]", "value": -0.495}, {"measurement": "glycan array binding signal (z-score)", "setting": "[23]", "value": -0.517}, {"measurement": "glycan array binding signal (z-score)", "setting": "Gal3S4S(b1-4)GlcNAc", "value": -0.487}, {"measurement": "glycan array binding signal (z-score)", "setting": "Gal3S6S(b1-4)GlcNAc", "value": -0.464}, {"measurement": "glycan array binding signal (z-score)", "setting": "Gal3S6S(b1-4)GlcNAc6S", "value": -0.464}, {"measurement": "glycan array binding signal (z-score)", "setting": "Gal4S(b1-4)GlcNAc", "value": -0.473}, {"measurement": "glycan array binding signal (z-score)", "setting": "Gal4S6S(b1-4)GlcNAc", "value": -0.491}, {"measurement": "glycan array binding signal (z-score)", "setting": "Gal6P(b1-4)GlcNAc", "value": -0.494}, {"measurement": "glycan array binding signal (z-score)", "setting": "Gal6S(b1-3)GlcNAc", "value": -0.361}, {"measurement": "glycan array binding signal (z-score)", "setting": "Gal6S(b1-3)GlcNAc6S", "value": -0.247}]}]}
